For one assay, the system named is HSkMC. Description: cytotoxicity call (relative viability < 0.9). As to conditions: 10 µM.
Another assay has as its system HepG2. Put plainly: cytotoxicity call (relative viability < 0.9). Particulars: 10 µM.
Another assay deals with S. aureus RN4220. Put plainly: growth inhibition call (relative growth <= 0.2). As to conditions: 50 µM.

Data on twelve compounds can be found in the antibiotic and cytotoxicity screens of Wong et al. (2023).

This is one part of the list.

Consider `C[C@H](CO)N1C[C@H](C)[C@H](CN(C)CC2CCCCC2)Oc2c(NS(=O)(=O)c3cn(C)cn3)cccc2C1=O`, for which the cytotoxicity call in the assay on HSkMC and in the assay on HepG2 was “inactive” each time. The growth inhibition call with S. aureus RN4220 is “inactive”.

As for `COC1C=CC23c4cc5c(cc4CN(CC2O)C3C1)OCO5` (stereo unspecified), the cytotoxicity call with HSkMC and with HepG2 was “inactive” each time. For the same compound, in the assay on S. aureus RN4220, the growth inhibition call is “inactive”.

`COc1ccc2c(c1)OCC(Cc1ccc(OC)c(O)c1)C2=O` (stereo unspecified): in the assay with HSkMC, the cytotoxicity call was “inactive”. Besides, the cytotoxicity call in the assay on HepG2 was “active”. The growth inhibition call with S. aureus RN4220 was “inactive”.

Regarding `C[C@@H]1CN([C@@H](C)CO)C(=O)c2cc(NS(=O)(=O)c3ccc(Cl)cc3)ccc2O[C@@H](C)CCCCO[C@@H]1CN(C)S(=O)(=O)c1ccccc1`, the cytotoxicity call in the assay with HSkMC is “inactive”. Further, in the assay on HepG2, the cytotoxicity call was “active”. In the assay on S. aureus RN4220, the growth inhibition call was “inactive”.

As to `C[C@H](CO)N1C[C@H](C)[C@H](CN(C)C(=O)Nc2ccc3c(c2)OCO3)Oc2ccc(NC(=O)Cn3cnnn3)cc2C1=O`, the cytotoxicity call with HSkMC and in the assay on HepG2 was “inactive” in each case. For the same compound, the growth inhibition call in the assay with S. aureus RN4220 is “inactive”.

`Nc1ncnc2c1ncn2CCN1CCOCC1`: the cytotoxicity call with HSkMC and with HepG2 was “inactive” each time. The growth inhibition call in the assay with S. aureus RN4220 was “inactive”.

Take `C[C@H](CO)N1C[C@H](C)[C@@H](CN(C)S(=O)(=O)c2cn(C)cn2)Oc2c(NS(=O)(=O)c3ccccc3)cccc2C1=O`: the cytotoxicity call in the assay on HSkMC and in the assay with HepG2 was “inactive” throughout. Further, the growth inhibition call in the assay on S. aureus RN4220 was “inactive”.

In the case of `C[C@@H]1CN([C@H](C)CO)S(=O)(=O)c2ccc(C#C[C@@H](C)O)cc2O[C@H]1CN(C)C(=O)CN(C)C`, the cytotoxicity call in the assay with HSkMC and in the assay on HepG2 was “inactive” in each case. In addition, the growth inhibition call with S. aureus RN4220 was “inactive”.

Consider `C[C@H]1CN([C@@H](C)CO)C(=O)Cc2cc(NS(C)(=O)=O)ccc2O[C@@H]1CN(C)S(=O)(=O)c1ccc(F)cc1`, for which the cytotoxicity call with HSkMC and in the assay with HepG2 was “inactive” throughout. The growth inhibition call in the assay on S. aureus RN4220 is “inactive”.

Consider `C[C@H]1CN([C@@H](C)CO)C(=O)c2cc(NC(=O)Nc3ccc(F)cc3)ccc2O[C@H]1CN(C)Cc1ccc(-c2ccccc2)cc1`, for which the cytotoxicity call in the assay with HSkMC and with HepG2 was “inactive” in each case. Moreover, in the assay on S. aureus RN4220, the growth inhibition call was “inactive”.

For the compound `CC(C)(C)OC(=O)C[C@@H]1CC=CC[C@@H](CC(=O)N[C@H](CO)Cc2ccccc2)C(=O)N[C@@H](C(C)(C)C)COC1=O`, the cytotoxicity call in the assay on HSkMC (human skeletal muscle cells) and in the assay on HepG2 was “inactive” throughout. Also, the growth inhibition call in the assay with S. aureus RN4220 was “inactive”.

Consider `Cc1ccc(S(=O)(=O)N(C)C[C@H]2Oc3c(NS(=O)(=O)c4cn(C)cn4)cccc3C(=O)N([C@@H](C)CO)C[C@H]2C)cc1`, for which the cytotoxicity call with HSkMC and in the assay with HepG2 was “inactive” in each case. In the assay on S. aureus RN4220, the growth inhibition call was “inactive”.
